Out of some 220,000 compounds screened, about 16,000 (7.3%) were called active. The shares of active, inactive and inconclusive entries below differ from those in the screen. Calls come from the whole dose curve; as a rule, active = well fitted inhibition curve with a large enough effect (not every such curve was filed as active); inconclusive = small, poorly fitted or top-dose-only effect, or another doubt; inactive = no such curve, though single readings can be large or run the other way. No potency is given beside an inconclusive call; the fits are too rough.
Molecular target: Aldehyde dehydrogenase 1A1 (Homo sapiens) (UniProt P00352)
Sequence of UniProt P00352 (P00352 whole entry, looked up): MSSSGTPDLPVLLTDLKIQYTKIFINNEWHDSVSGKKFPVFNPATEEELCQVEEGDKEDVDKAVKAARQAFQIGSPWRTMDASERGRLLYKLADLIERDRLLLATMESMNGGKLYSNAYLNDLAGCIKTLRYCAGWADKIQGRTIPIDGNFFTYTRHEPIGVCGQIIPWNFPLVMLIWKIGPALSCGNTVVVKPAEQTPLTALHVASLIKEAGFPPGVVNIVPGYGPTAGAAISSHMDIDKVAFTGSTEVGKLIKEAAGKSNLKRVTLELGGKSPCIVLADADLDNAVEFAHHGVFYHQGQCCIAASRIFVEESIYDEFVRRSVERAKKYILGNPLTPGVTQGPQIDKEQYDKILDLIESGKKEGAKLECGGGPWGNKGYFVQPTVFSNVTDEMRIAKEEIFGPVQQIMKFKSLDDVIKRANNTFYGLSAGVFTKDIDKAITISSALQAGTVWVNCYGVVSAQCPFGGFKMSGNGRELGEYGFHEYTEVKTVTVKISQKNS
Assay: qHTS Assay for Inhibitors of Aldehyde Dehydrogenase 1 (ALDH1A1)
Conditions: Purified ALDH1A1, NADH fluorescence, propionaldehyde substrate; series mostly up to 75.3 µM
Potency is the fitted concentration of half-maximal effect; tags give direction and shape of the fitted curve.

Compound	Potency
C/C(=N\NC(=O)c1ccn(C)n1)c1cccc(NC(=O)c2ccc(C)s2)c1	inconclusive [inhibitor, partial curve]
CCOC(=O)c1c(NC(=O)CCN2CCOCC2)sc(C)c1-c1ccccc1	inconclusive [inhibitor, single point]
CC(/C=C/c1ccco1)=N\NC(=O)c1cccnc1	active: 7.94 µM
O=C(COc1ccc(Cl)cc1)NCc1nnc2c3ccccc3c(-c3ccccc3)nn12	inconclusive [inhibitor, single point]
Cc1ccc(-n2c(SCn3nnc4ccccc4c3=O)nnc2-c2cccnc2)c(C)c1	active: 22.4 µM
COC(=O)c1ccc2c(=O)n(C3CCCCC3)c(SCC#N)nc2c1	inconclusive [inhibitor, full curve, poor fit]
CCCCCNCC(=O)Nc1cc(C(F)(F)F)ccc1OCCOC	inconclusive [inhibitor, single point]
CC(=O)N1CCCc2cc(S(=O)(=O)CCC(=O)N3CCN(c4cccc(C)c4)C(C)C3)ccc21 (configuration not stated)	active: 17.8 µM
Oc1ccc(C=NCC2COc3ccccc3O2)cc1 (configuration not stated)	active: 17.8 µM
CCCC(=O)Nc1ccccc1NC(=O)c1ccc(OC)cc1	inconclusive [inhibitor, single point]
COc1cc(/C=N\Nc2nc3ccccc3[nH]2)cc(OC)c1OC	inconclusive [inhibitor, partial curve]
COC(=O)CCC(=O)NNC(=O)Cc1ccccc1	inconclusive [inhibitor, single point]
O=C(CCC(=O)N1CCN(S(=O)(=O)c2ccccc2)CC1)c1cccs1	inconclusive [inhibitor, single point]
CCOC(=O)C1CCCN(C(=S)Nc2cc(C)cc(C)c2)C1 (configuration not stated)	inactive
NC(=O)c1ccsc1N	inconclusive [inhibitor, single point]
CSc1ccc(C(=O)C2CCCN(C(=O)Cc3nonc3C)C2)cc1 (configuration not stated)	inconclusive [inhibitor, single point]
CC(C(=O)N1CCOCC1)N1C(=O)c2cccc3cccc(c23)C1=O (configuration not stated)	inconclusive [inhibitor, single point]
COc1cc(NC(=S)NCCSc2ccc(C)cc2)cc(OC)c1	inconclusive [inhibitor, full curve]
CCOC(=O)c1nc(Nc2ccccc2)c2ccccc2n1	inactive
Nc1cc2c(cc1C(=O)c1ccccc1F)OCCO2	inconclusive [inhibitor, single point]
CC1CCc2c(nc3ncnn3c2N2CCN(c3ccccc3)CC2)C1 (configuration not stated)	inconclusive [inhibitor, single point]
Cc1cc(-c2ccccc2)n(-c2ccc(C(=O)NC(C)C)cc2)n1	inactive
Cc1cccc(Cn2cc(/C=C/[N+](=O)[O-])c3ccccc32)c1	inconclusive [inhibitor, partial curve]
O=C(c1ccc(NC(=S)NCc2ccco2)cc1)N1CCOCC1	inconclusive [inhibitor, single point]

Compound	Potency
CCCCNC(=S)N/N=C/c1ccc(C#N)cc1	inactive
C#CCn1c(S(=O)(=O)Cc2ccccc2Cl)nc(-c2ccccc2)c1-c1ccccc1	inactive
CCCCNc1nc(C)nc2c1nc(-c1ccccc1)n2C1CCN(Cc2ccccc2)C1 (configuration not stated)	inconclusive [inhibitor, partial curve]
N#CC1=C(N)NC(SCc2ccc(Br)cc2)=C(C#N)C12CCCCC2	inconclusive [inhibitor, single point]
O=C(c1ccc([N+](=O)[O-])cc1)N1CCN=C1SCc1ccccc1	inconclusive [inhibitor, partial curve]
FC(F)(F)c1cnc(-c2cnc(-c3ccncc3)nc2)c(Cl)c1	active: 17.8 µM
COc1ccc2c(c1)c1ccc3c(c1n2C)C(=O)C=CC3=O	active: 0.282 µM
CCOC(=O)C1=C(CSc2nc(C)cc(C)c2C#N)OC(N)=C(C#N)C1c1ccccc1 (configuration not stated)	active: 10 µM
CCC(C)[C@H](NC(=O)NCCCn1ccnc1)C(=O)OC (some centres not stated)	inactive
O=[N+]([O-])c1ccc(N2CCOCC2)nc1	inconclusive [inhibitor, single point]
CCOc1ccc(NCC(=O)Nc2ccc(C)cc2C)cc1	active: 1.78 µM
Cn1nnnc1SCC(=O)Nc1cccc([N+](=O)[O-])c1	inconclusive [inhibitor, single point]
Cc1ccc(-n2ncc(C(=O)NCc3ccc4c(c3)OCO4)c2NC(=O)c2ccco2)cc1C	inconclusive [inhibitor, single point]
Cc1cc(/C=C2/C(=N)N3C(c4ccccc4)=CSC3=NC2=O)c(C)n1-c1ccccc1	inactive
COCCCNCCCOc1ccc(C(C)(C)c2ccccc2)cc1	inconclusive [inhibitor, single point]
Clc1ccc(Cl)c(OCc2cc(-c3ccccc3Cl)on2)c1	inactive
CN1/C(=C\C(=S)NC(=O)c2cccc(Br)c2)C(C)(C)c2ccccc21	active: 1 µM
COC(=O)C1=C(C(=O)OC)C(c2cc([N+](=O)[O-])ccc2O)c2sc(=O)[nH]c2S1 (configuration not stated)	inconclusive [inhibitor, single point]
CC(=O)Nc1cccc(NC(=S)Nc2cccc(Cl)c2C)c1	inconclusive [inhibitor, single point]
Cc1cccc(NC(=O)C(NS(=O)(=O)c2ccc3c(c2)CCC(=O)N3)c2ccccc2)n1 (configuration not stated)	inconclusive [inhibitor, single point]
Cc1c(Cl)c(C(=O)NNC(=S)NCc2ccco2)nn1C	inconclusive [inhibitor, single point]
O=C(NC(=S)Nc1ccc(S(=O)(=O)N2CCCC2)cc1)C1CC1	active: 20 µM
O=c1c(-c2cccc3ccccc23)[n+]([O-])c2ccccc2n1O	inactive
COC(=O)NC1C=CCCC1C(C)=O (configuration not stated)	inactive

Compound	Potency
CCOc1ccc(NS(=O)(=O)c2ccc3ncsc3c2)cc1	inconclusive [inhibitor, partial curve, poor fit]
CCOC(=O)/C(=C\c1cn(C)c2ccccc12)[N+](=O)[O-]	active: 6.31 µM
Cc1ccccc1SCC(=O)OCC(=O)Nc1ccc(N(C)C)cc1	inconclusive [inhibitor, single point]
O=c1[nH]n2c(=O)c3c([nH]c2c1N=Nc1cccc(Cl)c1)CCC3	inconclusive [inhibitor, single point]
O=C1C(=O)c2ccccc2C(O)=C1CCCCl	inconclusive [inhibitor, partial curve]
C=CCN(c1ccccc1)S(=O)(=O)c1cccc(C(=O)Oc2ccc3c(C)cc(=O)oc3c2)c1	inconclusive [inhibitor, partial curve]
COc1ccc(C(=O)OCC(=O)N2CCCCC2)cc1[N+](=O)[O-]	inconclusive [inhibitor, single point]
COc1ccccc1CNC(=O)c1ccc(S(=O)(=O)N2CCCC2)cc1	inconclusive [inhibitor, single point]
N#CC(Cc1ccc(O)c(O)c1)C(=O)N1CCc2ccccc21 (configuration not stated)	active: 8.91 µM
Cc1cc(C)cc(N=Cc2ccc([N+](=O)[O-])s2)c1	inconclusive [inhibitor, single point]
O=C(CSc1nc2ccccc2[nH]1)NC1CCS(=O)(=O)C1 (configuration not stated)	inactive
Cn1cccc1Cc1nnc(SCC(=O)NCc2ccco2)n1-c1ccc(F)cc1	active: 12.6 µM
Cc1ccc2c(c1)cc(CN(CCc1ccccc1)C(=O)N1CCOCC1)c1nnnn12	inconclusive [inhibitor, partial curve, poor fit]
O=C(/C=C\c1ccco1)c1ccc(NC(=O)c2ccco2)cc1	inconclusive [inhibitor, single point]
Cc1cc2ncn(C(=O)c3cc(-c4ccccc4)nc4ccccc34)c2cc1C	inconclusive [inhibitor, single point]
Cc1cc2oc(=O)cc(CN3CCN(S(=O)(=O)c4cccs4)CC3)c2cc1C	inconclusive [inhibitor, partial curve, poor fit]
CCC(Sc1nccn1C)C(=O)Nc1ccc(Cl)cn1 (configuration not stated)	inactive
CC1(C)Cc2c(ccc3ccccc23)/C(=C/C(=O)N2CCCCC2)N1	inconclusive [inhibitor, single point]
CCOC(=O)C1CCN(c2ncnc3c2oc2ccc(Br)cc23)CC1	inconclusive [inhibitor, single point]
CCCCn1nnnc1SCC(=O)Nc1ccc(F)cc1	inconclusive [inhibitor, partial curve]
CCc1cccc(OCCn2ccnc2)c1	inconclusive [inhibitor, partial curve]
Cc1cccc(Oc2ccccc2N)c1	inconclusive [inhibitor, single point]
Cc1ccc(NC(=O)Cn2c(O)c(N=NC(=O)c3cc4ccccc4cc3O)c3ccccc32)cc1	inconclusive [inhibitor, single point]
Cc1ccc(Cn2cnc3c(nnn3Cc3ccc(Cl)cc3)c2=O)cc1	inactive
